Hit rate of the full screen: of about 72,000 compounds, about 710 (0.99%) were called active. Inconclusive results, whose numbers are uncertain, are shown with a selection of clear calls. The call rests on the fitted dose curve; in most records, active means well fitted inhibition curve with a large enough effect; inconclusive means small, poorly fitted or top-dose-only effect; inactive means no such curve, though single readings can be large or run the other way. No potency is given beside an inconclusive call; the fits are too rough.
test: qHTS Assay for Inhibitors of the ERK Signaling Pathway using a Homogeneous Screening Assay; details: HEK293-V1b, vasopressin-stimulated pERK AlphaScreen; activity, negative = inhibition: at 57.5 µM (top of the series) unless noted; further: nearly all actives have a fitted effect of over 55% in size
Outline: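 qHTS, compounds titrated on V1b-expressing HEK293 cells. Preincubation 30 min at 37C, vasopressin 25 nM for 5 min, lysis 10 min, bead incubation 5 hr at room temperature.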
On the % scale 0 is the no-effect control and ±100 the full control effect; potency means the concentration at half of the fitted maximal effect; tags describe the fitted curve by direction and shape.

| SMILES | Potency | activity, negative = inhibition |
| --- | --- | --- |
| COCCCNC(=O)C(Cc1ccccc1)NS(=O)(=O)c1ccc2c(c1)c(=O)n(C)c(=O)n2C (stereo unspecified) | inconclusive [inhibitor, partial curve] |  |
| Cc1c(NC(=O)CN2c3cccc4cccc(c34)S2(=O)=O)c(=O)n(-c2ccccc2)n1C | inactive |  |
| CCCC(=O)NCCc1c2n(c3ccc(OC)cc13)CCCc1ccccc1-2 | inconclusive [inhibitor, partial curve] |  |
| CCNc1nc(NCc2ccccc2)nc(Oc2ccc(=O)[nH]n2)n1 | inconclusive [inhibitor, partial curve] |  |
| O=C(Nc1cccc(-c2cnc3ccccc3n2)c1)c1ccco1 | inconclusive [inhibitor, partial curve] |  |
| Cc1ccc(S(=O)(=O)N2CCCCC2C(=O)N2CCN(Cc3ccccc3)CC2)cc1 (stereo unspecified) | inactive |  |
| CCOC(=O)c1[nH]c2ccc(OC)cc2c1NC(=O)C(C)N1CCC2(CC1)OCCO2 (stereo unspecified) | inconclusive [inhibitor, partial curve] |  |
| CN1CCN(c2ccnc(-c3cccnc3)n2)CC1 | inactive |  |
| COc1ccc(NC(=O)C2CCCN2S(=O)(=O)c2ccc(F)cc2)cc1 (stereo unspecified) | inconclusive [inhibitor, single point] |  |
| CCc1ccc(NS(=O)(=O)c2ccc3[nH]cc(C(=O)N4CCCCC4)c(=O)c3c2)cc1 | inactive |  |
| CN(C)Cc1c(O)ccc2oc(Cc3ccccc3)cc12 | inconclusive [inhibitor, single point] |  |
| CCOC(=O)C1CCCN(C/C(O)=C(\C#N)c2nc(-c3ccc(Cl)cc3)cs2)C1 (stereo unspecified) | inconclusive [inhibitor, single point] |  |
| NS(=O)(=O)c1cc2c(cc1Cl)=NC(CCC(=O)O)=NS=2(=O)O |  | inactive: -3.41% [at 11.5 µM] |
| NC(=O)CSc1nnc(Cc2ccc3c(c2)OCO3)n1C1CCCCC1 | inconclusive [inhibitor, full curve, poor fit] |  |
| O=c1cc[nH]c(=S)[nH]1 | inactive |  |
| CC(Oc1ccc(Br)cc1)C(=O)N1CCc2ccccc21 (stereo unspecified) | inactive |  |
| COC(=O)c1ccccc1NC(=O)CN1CCC(NC(=O)c2ccccc2C)CC1 |  | inconclusive: -38.1% [inhibitor] |
| C[C@@](N)(C(=O)O)c1ccc(P(=O)(O)O)cc1 | inactive |  |
| Cc1sc(C(=O)NCc2cccnc2)c2nc(C)n(CC(=O)NCc3cccnc3)c(=O)c12 | inconclusive [inhibitor, partial curve] |  |
| CCn1ccc(C(=O)Nc2ccc(S(=O)(=O)Nc3ccccc3OC)cc2)n1 | inconclusive [inhibitor, single point] |  |
| COC(=O)C1=C(C)N(Cc2cccnc2)C(=O)C1 | inconclusive [inhibitor, partial curve] |  |
| COc1ccc(-n2nc(C(=O)Nc3ccc4c(c3)OCO4)c3c4ccccc4n(C)c3c2=O)cc1 | inactive |  |
| CCc1ccc(NC(=O)Cn2c(=O)n(CCCC(=O)NCc3ccco3)c(=O)c3ccccc32)cc1 | inconclusive [inhibitor, partial curve, poor fit] |  |
| COC(=O)[C@@]1(Cc2ccccc2)[C@H]2c3cc(C(=O)N4CCCC4)n(CCO)c3C[C@H]2CN1C(=O)c1ccccc1 | inactive |  |

| SMILES | Potency | activity, negative = inhibition |
| --- | --- | --- |
| CCOC(=O)CC(=O)CSc1nc(-c2cccnc2)ccc1C#N | inconclusive [inhibitor, single point] |  |
| Nc1nc(NCCc2ccc(O)cc2)nc2nc(-c3ccco3)nn12 | inconclusive [inhibitor, single point] |  |
| O=C(Nc1ccc(C(=O)Oc2ccccc2)c(O)c1)c1ccco1 | inconclusive [inhibitor, single point] |  |
| CCN(CC(=O)NCc1cccs1)c1ccc(S(=O)(=O)N2CCOCC2)cn1 | inactive |  |
| COc1ccc(N2CCN(C(=O)c3ccc(C)cc3Cl)CC2)cc1 | inconclusive [inhibitor, partial curve] |  |
| NS(=O)(=O)c1ccc(NC(=O)CSC2CCCCC2)cc1 | inconclusive [inhibitor, single point] |  |
| Cc1ccc2nc(C3CCCN(C(=O)NCc4ccccc4)C3)[nH]c2c1 (stereo unspecified) | inconclusive [inhibitor, partial curve] |  |
| O=C(NCc1ccco1)C1OCCc2ccccc21 (stereo unspecified) | inconclusive [inhibitor, partial curve, poor fit] |  |
| c1ccc(N2CCOCC2)c(Nc2nc3ccccc3n3cnnc23)c1 | inconclusive [inhibitor, partial curve] |  |
| CC(=O)Nc1ccccc1-c1nc2ccc(C(=O)N3CCN(c4ccccc4)CC3)cc2[nH]c1=O | inconclusive [inhibitor, single point] |  |
| COc1cccc(-c2cncnc2Nc2ccccc2)c1 | inconclusive [inhibitor, partial curve, poor fit] |  |
| COc1ccccc1CNc1cc(-c2ccccc2Cl)ncn1 | inconclusive [inhibitor, partial curve] |  |
| Cc1cc(NS(=O)(=O)c2ccc(NC(=O)COc3ccccc3C(C)C)cc2)no1 | inconclusive [inhibitor, partial curve] |  |
| CC(=O)COc1ccc2c3c(c(=O)oc2c1C)CCCCC3 | inconclusive [inhibitor, partial curve] |  |
| COc1cccc(C(=O)Nc2ccc3nc(N4CCOCC4)cc(C)c3c2)c1 | inconclusive [inhibitor, single point] |  |
| CCOC(=O)Nc1cc(C)ccc1OC |  | inconclusive: -33.2% [inhibitor] |
| CCOC(=O)c1ccc2ncc(C(=O)OCC)c(NCCCN3CCOCC3)c2c1 | inconclusive [inhibitor, single point] |  |
| CCCc1cc2c(n1CCc1ccc(Cl)cc1)C(C)C1CN(C(=O)c3ccccc3)C(C)(C(=O)OC)C21 (stereo unspecified) | inactive |  |
| N[C@]1(C(=O)O)CCc2cc(C(=O)O)ccc21 | inconclusive [inhibitor, single point] |  |
| COc1ccc2c(Cl)c(C(N)=O)sc2c1 | inconclusive [inhibitor, partial curve] |  |
| CNS(=O)(=O)c1cccc(C(=O)OCC(=O)c2cc(C)n(-c3ccc4c(c3)OCO4)c2C)c1 | inconclusive [inhibitor, full curve] |  |
| CCOC(=O)C1Cc2c([nH]c3ccccc23)CN1 (stereo unspecified) | inconclusive [inhibitor, partial curve] |  |
| C=CC(=O)OCCCC | inactive |  |
| O=C(O)C[C@H](Cc1ccccc1)C(=O)O |  | inactive: 9.6% [at 11.5 µM] |

| SMILES | Potency | activity, negative = inhibition |
| --- | --- | --- |
| COC(=O)[C@@]1(Cc2ccccc2)C=C[C@@H](C)N1C(=O)c1ccccc1 | inactive |  |
| CCOC(=O)c1c(-c2ccc(C)s2)csc1NC(=O)c1ccco1 | inconclusive [inhibitor, single point] |  |
| Cc1ccccc1C(=O)NC1CCN(Cc2nnnn2Cc2ccccc2)CC1 | inconclusive [inhibitor, partial curve] |  |
| CCCc1nc2ccccc2n2cc3c(=O)n(C)c(=O)n(C)c3c12 | inactive |  |
| CC(=O)NCCOc1ccc(C(=O)O)cc1 | inconclusive [inhibitor, single point] |  |
| COC(=O)c1[nH]c2ccc(C)cc2c1NC(=O)CN1CCN(Cc2ccccc2)CC1 | inconclusive [inhibitor, partial curve] |  |
| CN(Cc1ccccc1)C(=O)CN(C1CCCCC1)S(C)(=O)=O | inconclusive [inhibitor, partial curve] |  |
| CC1=CS/C(=C(/C#N)C(=O)N2CCCCC2)N1c1ccccc1 | inactive |  |
| COc1ccc(Oc2ncc3nc(C)c(=O)n(Cc4cccc(OC)c4)c3n2)cc1 | inactive |  |
| O=S1(=O)OC(c2ccc(O)cc2)(c2ccc(O)cc2)c2ccccc21 |  | inactive: 0.168% [at 11.5 µM] |
| O=[N+]([O-])/C=C\c1cc2ccccc2[nH]1 |  | inactive: 30.7% [at 11.5 µM] |
| Cc1cccc2sc(NC(=O)CNS(=O)(=O)c3ccc(Br)s3)nc12 | active: 20 µM |  |
| COc1cccc(NC(=O)Cn2c(SCC(=O)N3CCOCC3)nc3ccccc32)c1 | inactive |  |
| Cc1cccc(CNc2cc(-c3cccnc3)ncn2)c1 | inactive |  |
| COc1cc2c(cc1OC)C(c1ccc(N)cc1)=NNC(=O)C2 | inconclusive [inhibitor, partial curve, poor fit] |  |
| Cc1cc(/C=C/c2ccc3cc(N(C)C)ccc3[n+]2C)c(C)n1-c1ccccc1 | inconclusive [inhibitor, partial curve, poor fit] |  |
| CCc1cccc(OCC(=O)Nc2ccc(S(=O)(=O)Nc3onc(C)c3C)cc2)c1 | inconclusive [inhibitor, partial curve, poor fit] |  |
| CC(=O)c1cccc(NC(=O)Nc2cnn(Cc3ccc(F)cc3)c2)c1 | inconclusive [inhibitor, partial curve] |  |
| COc1ccc(N2CSC3=C(C#N)C(c4ccc(OC)c(OC)c4)CC(=O)N3C2)c(OC)c1 (stereo unspecified) | inconclusive [inhibitor, partial curve] |  |
| CCc1nc(NCc2ccco2)c2oc3ccccc3c2n1 | inactive |  |
| CN1C=CC(=C2C(=O)c3ccccc3C2=O)C=C1 | inactive |  |
| CC1=C(/C=C\C(=O)O)C(C)(C)CCC1 |  | inactive: 12.5% [at 11.5 µM] |
| O=C(CSc1nc2[nH]ncc2c(=O)n1-c1ccccc1)c1ccc2c(c1)OCCO2 | inconclusive [inhibitor, partial curve] |  |

From PubChem BioAssay AID995 (National Center for Advancing Translational Sciences (NCATS), 2007)
